# Laboratory results reported in PubChem BioAssay AID256 (DTP/NCI, 2004).
# Inconclusive results and toxic doses are left out. Some entries of the source have several records that differ or are many. This list holds those alone. There may be further records. The records of an entry are repeats across runs, samples, wells, individuals or studies. A tag in brackets gives the origin of a value. The letters are not those of the source and start again with each entry. Residues, ends and D or L forms follow the SMILES beside them. *: point of attachment. Trt = c1ccc(C(c2ccccc2)(c2ccccc2)*)cc1; Cbz = O=C(OCc1ccccc1)*
# Test system: CD2F1 mice, L1210 leukemia ip, survival T/C
# Assay: NCI In Vivo Anticancer Drug Screen. Data for tumor model L1210 Leukemia (intraperitoneal) in CD2F1 (CDF1) mice
# Details: higher = longer survival
# Summary of the method: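 Each value reflects a quotient of treated over vehicle control outcomes in mice with a transplanted tumor.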
# [1] = endpoint: median survival time, dose: 12.5 mg/kg/injection, schedule: Q04DX003 (ip), vehicle: saline
smiles,measurement,setting,value
CC(C)OC(=O)c1cc([N+](=O)[O-])c(Sc2ncnc3nc[nH]c23)c([N+](=O)[O-])c1,T/C,"endpoint: mean survival time, dose: 75.0 mg/kg/injection, schedule: Q01DX005 (ip), vehicle: other",109 % of control and 164 % of control
O=C(O)C(O)C(O)C(=O)O.[NH-]C1CCCCCC1[NH-].[Pt+2] (stereo not drawn),T/C,"endpoint: mean survival time, dose: 40.0 mg/kg/injection, schedule: Q04DX003 (ip), vehicle: dextrose",113 % of control and 157 % of control
COC(=O)C(CSC(c1ccccc1)(c1ccccc1)c1ccccc1)NC(=O)C(CC(N)=O)NC(=O)OCc1ccccc1 (stereo not drawn) (Cbz-Asn-Cys(Trt)-OMe; configuration not given here),T/C,"endpoint: median survival time, dose: 400.0 mg/kg/injection, schedule: Q01DX009 (ip), vehicle: distilled water + Tween-80",97 % of control and 150 % of control
O=S(=O)(O)c1ccccc1.O=S(=O)(O)c1ccccc1.[NH-]C1CCCCC1[NH-].[Pt+2],T/C,"endpoint: mean survival time, dose: 2.0 mg/kg/injection, schedule: Q01DX009 (ip), vehicle: dextrose",95 % of control and 175 % of control
CC(C)=CC(=O)OC1C2C(C)=CC(=O)C(O)C2(C)C2C3(O)OCC24C(CC(=O)OC14)C(C)C3O (stereo not drawn),T/C,"endpoint: median survival time, dose: 4.0 mg/kg/injection, schedule: Q01DX009 (ip), vehicle: distilled water + Tween-80 + alcohol",86 % of control and 180 % of control
O=C1c2c(O)ccc(O)c2C(=O)c2c(NCCNCCO)ccc(NCCNCCO)c21,T/C,"endpoint: median survival time, dose: 4.0 mg/kg/injection, schedule: Q01DX009 (ip), vehicle: acid diluted with saline",100 % of control and 159 % of control
CC(=O)NC(C=O)CC(C=O)CO (stereo not drawn),T/C,"endpoint: mean survival time, dose: 200.0 mg/kg/injection, schedule: Q04DX003 (ip), vehicle: saline",104 % of control and 164 % of control
CC(C)(C)N1CC1CNC(=O)C(=O)NCC1CN1C(C)(C)C (stereo not drawn),T/C,"endpoint: mean survival time, dose: 25.0 mg/kg/injection, schedule: Q01DX009 (ip), vehicle: saline with Tween-80",105 % of control and 156 % of control
O=C1c2ccccc2C(=O)c2c(NCCNCCO)ccc(O)c21,T/C,"endpoint: mean survival time, dose: 80.0 mg/kg/injection, schedule: Q01DX009 (ip), vehicle: suspension in saline",107 % of control and 156 % of control
O=P(Oc1ccccc1)(Oc1ccccc1)N(CCCl)CCCl,T/C,"endpoint: mean survival time, dose: 200.0 mg/kg/injection, schedule: Q01DX009 (ip), vehicle: water",120 % of control and 178 % of control
Nc1nc(N)c2cc(CNc3ccc(C(=O)NC(CC(=O)O)C(=O)O)c(Cl)c3)ccc2n1 (stereo not drawn),T/C,"endpoint: mean survival time, dose: 20.0 mg/kg/injection, schedule: Q01DX001 (ip), vehicle: saline",122 % of control and 168 % of control
CCOC(=O)Nc1cc(NC(C)/C(=N/O)c2ccccc2)c([N+](=O)[O-])c(N)n1 (stereo not drawn),T/C,"endpoint: median survival time, dose: 50.0 mg/kg/injection, schedule: Q01DX005 (ip), vehicle: Klucel (hydroxypropylcellulose) (HPC)",103 % of control and 154 % of control
CN(C)c1ccc(N=Nc2ccc(S(=O)(=O)O)cc2)cc1.CN(C)c1ccc(N=Nc2ccc(S(=O)(=O)O)cc2)cc1.[NH-]C1CCCCC1[NH-].[Pt+2],T/C,[1],102 % of control and 155 % of control
same,T/C,"endpoint: median survival time, dose: 25.0 mg/kg/injection, schedule: Q04DX003 (ip), vehicle: saline",98 % of control and 185 % of control
same,T/C,"endpoint: median survival time, dose: 50.0 mg/kg/injection, schedule: Q04DX003 (ip), vehicle: saline",116 % of control and 181 % of control
N[C@H](C(=O)O)[C@@H]1CC(Cl)=NO1,T/C,"endpoint: median survival time, dose: 12.0 mg/kg/injection, schedule: Q01DX009 (ip), vehicle: saline","87 % of control, 114 % of control, 159 % of control"
CC(C)CC(NC(=O)C(N)Cc1ccc(N(CCCl)CCCl)cc1)C(=O)O (stereo not drawn),T/C,"endpoint: mean survival time, dose: 16.0 mg/kg/injection, schedule: Q04DX003 (ip), vehicle: saline with Tween-80",153 % of control [sample A] and 106 % of control [sample B]
CC1CC(C)(C)C(C[NH-])C1[NH-].[Cl][Pt+2][Cl] (stereo not drawn),T/C,"endpoint: mean survival time, dose: 6.25 mg/kg/injection, schedule: Q04DX003 (ip), vehicle: saline",109 % of control and 180 % of control
same,T/C,"endpoint: mean survival time, dose: 12.5 mg/kg/injection, schedule: Q04DX003 (ip), vehicle: saline",117 % of control and 180 % of control
CCCC(CC)(C[NH-])C[NH-].[Cl][Pt+2][Cl],T/C,"endpoint: mean survival time, dose: 3.12 mg/kg/injection, schedule: Q04DX003 (ip), vehicle: saline",102 % of control and 155 % of control
same,T/C,"endpoint: mean survival time, dose: 50.0 mg/kg/injection, schedule: Q04DX003 (ip), vehicle: saline",123 % of control and 178 % of control
O=C(O)/C(O)=C(/O)C(=O)O.[NH-]C1CCCCC1[NH-].[Pt+2],T/C,"endpoint: median survival time, dose: 6.25 mg/kg/injection, schedule: Q04DX003 (ip), vehicle: saline",108 % of control and 168 % of control
same,T/C,[1],107 % of control and 183 % of control
